# Source: the antibiotic and cytotoxicity screens of Wong et al. (2023)
# The list shows a part of the results.
# Test system: HepG2
# Experiment: cytotoxicity call (relative viability < 0.9)
# Details: 10 µM
row,Structure (SMILES),cytotoxicity call
1,CCCCCCCCCc1ccc(OCCOCCOCCOCCOCCOCCOCCOCCOCCO)cc1,active
2,C[C@H](CO)N1C[C@H](C)[C@@H](CN(C)Cc2ccc(Cl)c(Cl)c2)Oc2ccc(NS(=O)(=O)c3ccc(F)cc3)cc2C1=O,inactive
3,COC(=O)c1cc(=O)nc2n1[C@H]1O[C@H](CO)[C@H](O)[C@H]1O2,inactive
4,OCc1cnccn1,inactive
5,C[C@@H]1CCCCO[C@@H](CN(C)C(=O)Nc2ccc3c(c2)OCO3)[C@H](C)CN([C@@H](C)CO)C(=O)c2cc(NC(=O)Nc3ccc(C(F)(F)F)cc3)ccc2O1,inactive
6,COc1ccc(C(N)=S)cn1,inactive
7,COc1cc2c(cc1OC)CN(C(=O)[C@H]1[C@@H]3C(=O)O[C@@H](c4ccccc4)[C@@H](c4ccccc4)N3[C@@H](c3ccc(O)cc3)[C@]13C(=O)Nc1ccc(C#CC4=CCCCC4)cc13)CC2,inactive
8,Cc1noc(C)c1S(=O)(=O)N(C)C[C@H]1Oc2ccc(NS(=O)(=O)c3cn(C)cn3)cc2C(=O)N([C@@H](C)CO)C[C@H]1C,inactive
9,CC(=O)ON1C(C)(C)C=C(C(N)=O)C1(C)C,inactive
10,C[C@H]1COC(=O)[C@H](NC(=O)OCC2c3ccccc3-c3ccccc32)CC=CC[C@@H](CC(=O)NCCO)C(=O)N1,inactive
11,C[C@@H]1CN([C@@H](C)CO)C(=O)c2cccc(NC(=O)Nc3cccc4ccccc34)c2O[C@H]1CN(C)S(=O)(=O)c1ccc(Cl)cc1,inactive
12,Cc1ccc2nc(CN)cn2c1,inactive
13,CC(C)NC(=O)N(C)C[C@@H]1Oc2ccc(NC(=O)CCC(F)(F)F)cc2C(=O)N([C@@H](C)CO)C[C@H]1C,inactive
